Source: the BET-seq Pho4 binding data (Le et al. 2018)
The other results are listed elsewhere or left out. The energies were worked out here from pooled read counts, against the library average; single values are noisy.

target: T1, Pho4 (S. cerevisiae) (UniProt P07270); assay: relative binding free energy (BET-seq); higher = weaker binding; details: reference: library average
T1 sequence: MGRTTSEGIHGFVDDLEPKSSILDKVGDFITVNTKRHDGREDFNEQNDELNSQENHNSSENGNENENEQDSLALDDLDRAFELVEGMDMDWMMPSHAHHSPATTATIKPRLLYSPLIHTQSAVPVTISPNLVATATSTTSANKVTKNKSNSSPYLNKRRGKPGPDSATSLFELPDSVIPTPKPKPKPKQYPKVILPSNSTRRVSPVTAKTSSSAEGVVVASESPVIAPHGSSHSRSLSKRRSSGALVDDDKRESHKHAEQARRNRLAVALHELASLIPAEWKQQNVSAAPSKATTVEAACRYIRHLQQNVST

Relative binding free energy, -0.12 kcal/mol:
TTGGGCACGTGGATGC

Relative binding free energy, -0.26 kcal/mol:
ATAGCCACGTGGTTGG

Relative binding free energy, 0.09 kcal/mol:
GGTTCCACGTGGCGGT
AGTCACACGTGGTTTT
AGTGACACGTGTGGCT
GTCAGCACGTGCTGTG
TTGTGCACGTGTGATG

Relative binding free energy, 0.21 kcal/mol:
AGGTACACGTGTGAGC
TGTAACACGTGAGTGC
CTTTTCACGTGTTAAT
TTTCTCACGTGCGGTT

Relative binding free energy, 0.17 kcal/mol:
TAGGTCACGTGGATAG
TGTATCACGTGATAGG
TGTTGCACGTGAGAAA
GGTTACACGTGCAGGA
TGGGTCACGTGGTGTT

Relative binding free energy, 0.42 kcal/mol:
TTTTTCACGTGACTAT

Relative binding free energy, -0.18 kcal/mol:
CATTGCACGTGGTTGA

Relative binding free energy, -0.32 kcal/mol:
AACTGCACGTGGGGTA
AGTGGCACGTGCTGTA

Relative binding free energy, -0.17 kcal/mol:
GGCGCCACGTGGGTGG

Relative binding free energy, 0.35 kcal/mol:
AAGTTCACGTGCTGAG
AGTCACACGTGAGGAG
GTGTACACGTGAGCTA

Relative binding free energy, -0.07 kcal/mol:
GGGCGCACGTGCGGGA
GGGGGCACGTGTCAGT

Relative binding free energy, 0.33 kcal/mol:
GGGTTCACGTGTTCGG

Relative binding free energy, -0.29 kcal/mol:
TGTGGCACGTGCACGT

Relative binding free energy, 0.12 kcal/mol:
TGAGGCACGTGAAGTC
GGACGCACGTGTCGGT
GATATCACGTGTAGTG
TATCTCACGTGGGTGT
TGTTTCACGTGGGGTG
ATGGTCACGTGGATTG
GGTTACACGTGTTCTA

Relative binding free energy, 0.26 kcal/mol:
ATGTACACGTGTCGGC
TATATCACGTGATAGT

Relative binding free energy, -0.02 kcal/mol:
GTGGACACGTGTATGA
TGGTGCACGTGCTAGT
AATGGCACGTGTGTAA

Relative binding free energy, -0.35 kcal/mol:
AACGGCACGTGGTTGT

Relative binding free energy, 0.32 kcal/mol:
GGTTTCACGTGTAAGG

Relative binding free energy, 0.22 kcal/mol:
GCGGTCACGTGGTAAG
GGGTTCACGTGTAGAA

Relative binding free energy, 0.39 kcal/mol:
GGGGTCACGTGAGGCC
GGTGTCACGTGAATTC
AGGTTCACGTGTTACT
TTTGACACGTGATGGC

Relative binding free energy, -0.11 kcal/mol:
TCGGGCACGTGGGAAT

Relative binding free energy, -0.13 kcal/mol:
AAAGGCACGTGGCTTG
ATATCCACGTGGGTTG
AATAGCACGTGGTTAA
TGCAGCACGTGGTTTA
TGTCGCACGTGCGAGG
TGGTGCACGTGGGTCT
TCGGGCACGTGGGTGC

Relative binding free energy, 0.23 kcal/mol:
GAATTCACGTGTGTAG
GGTGTCACGTGATAGG

Relative binding free energy, 0.1 kcal/mol:
CTTGTCACGTGGATTT
GCGGTCACGTGTGTGG
ACGATCACGTGGGGAT

Relative binding free energy, 0 kcal/mol:
AGTAGCACGTGTTGGT
TTTATCACGTGGGTAA

Relative binding free energy, 0.13 kcal/mol:
GTTTACACGTGAGATG
GATCACACGTGGGAGG
TTGGTCACGTGCAGGG
TGTCTCACGTGGTTGA
AGGGACACGTGATATG
CTTATCACGTGTAGAG
AAGTTCACGTGGGGAC
GTGGGCACGTGAGCGC
TGTCTCACGTGTTGAT
GGTAACACGTGTTGAA

Relative binding free energy, -0.21 kcal/mol:
AGGGCCACGTGGGCGG
ATGGGCACGTGCGGGC
GTGTGCACGTGGGGCT

Relative binding free energy, -0.2 kcal/mol:
TAGTCCACGTGGGGTA
CATGGCACGTGGTCGG

Relative binding free energy, 0.28 kcal/mol:
GTGATCACGTGTATGG
ATTTACACGTGAGGCT

Relative binding free energy, 0.2 kcal/mol:
TCAATCACGTGTTGGT
GGAATCACGTGGATGG
TTTCGCACGTGAGTTT

Relative binding free energy, 0.36 kcal/mol:
GCCTGCACGTGAGGTT
GTATTCACGTGTAAAT

Relative binding free energy, 0.24 kcal/mol:
AATTTCACGTGTTAAT
TATCTCACGTGATTTT
CGCGACACGTGTGTTT

Relative binding free energy, 0.19 kcal/mol:
ACGGTCACGTGATGTT
GAAATCACGTGCGGGT
GGGGTCACGTGTACTA
GATCTCACGTGGTAGT
CATGTCACGTGAAGGT

Relative binding free energy, -0.08 kcal/mol:
GGGCCCACGTGGTGTG
TATAGCACGTGTGGGA
TACGGCACGTGGGGGA
TCGGACACGTGCTGGT

Relative binding free energy, 0.47 kcal/mol:
TGCTTCACGTGATGGG

Relative binding free energy, 0.05 kcal/mol:
TGTAACACGTGTTAGG
CTCGGCACGTGTTGGA
GTAAACACGTGTAGTA
AACGTCACGTGGTTTT
CTCTTCACGTGGGGGT

Relative binding free energy, -0.14 kcal/mol:
CTTGGCACGTGTTAAT
GACTACACGTGGGTGG
TGAGGCACGTGCACGG

Relative binding free energy, 0.34 kcal/mol:
TGTTTCACGTGATTGA
AAGTTCACGTGTGGTA

Relative binding free energy, -0.22 kcal/mol:
AGGGACACGTGCTTGT

Relative binding free energy, 0.15 kcal/mol:
GTCGTCACGTGTTATT
TGCTTCACGTGGCGGG
TTGTTCACGTGCGTAG
TGGCTCACGTGTGGTT
AGAGGCACGTGAAGGA
TGGATCACGTGTGTCT

Relative binding free energy, -0.05 kcal/mol:
TTAGGCACGTGTTCGG
CGCTGCACGTGTGTGG
GGGCGCACGTGTGACG
ATGTGCACGTGTAGAG

Relative binding free energy, 0.16 kcal/mol:
TGTATCACGTGTCTTA
CTATTCACGTGCGGTT
GTAGTCACGTGACTTG
GGTCTCACGTGGGGAA

Relative binding free energy, -0.15 kcal/mol:
TTAAGCACGTGGCTTG
GGGGGCACGTGTTTAC

Relative binding free energy, 0.18 kcal/mol:
TGTGGCACGTGAGTAT
AGGGACACGTGAGTCG
ATACTCACGTGCGGTG
ACATTCACGTGATGTT
GTTAGCACGTGAGGGT
TTGTGCACGTGATTAG

Relative binding free energy, 0.46 kcal/mol:
TATCTCACGTGAGGTT

Relative binding free energy, -0.23 kcal/mol:
AAGGGCACGTGCGGGT
AGTGGCACGTGGTACT
TAAGACACGTGTTGTG
GTAGGCACGTGGGGCC
TAATGCACGTGGGTTC
TGCTGCACGTGGGGAG
GGGAGCACGTGGTGGA

Relative binding free energy, 0.27 kcal/mol:
ATTGTCACGTGCAAGG
ATTTTCACGTGTAAAA
ATTTACACGTGATAGG
GAAGTCACGTGGGAAG

Relative binding free energy, 0.03 kcal/mol:
AATCGCACGTGTGAGG
GATGGCACGTGCGGGT
CTATACACGTGTGGGT
TGGCTCACGTGTCTTG
AGGAGCACGTGGACGG
GCAATCACGTGGTTGG
TATCCCACGTGTGTGT

Relative binding free energy, 0.11 kcal/mol:
TTAGACACGTGTAGTT
TGTGTCACGTGGTAGA
TTGGTCACGTGGTACT
GGGGTCACGTGGGAGT

Relative binding free energy, 0.29 kcal/mol:
TATTTCACGTGCATGG
TTGTTCACGTGGCGGC
GAGGACACGTGATGAG
TTGCTCACGTGATTGG
CTTTTCACGTGTAGGC
GTTCGCACGTGAGGTT

Relative binding free energy, -0.25 kcal/mol:
CAGGGCACGTGGTGCA

Relative binding free energy, -0.01 kcal/mol:
GGCGGCACGTGTTATA
GTCGGCACGTGGATGG

Relative binding free energy, -0.09 kcal/mol:
ATTAGCACGTGCATTG
ATGGACACGTGGGGAC
ATACGCACGTGATGGT
TTAAGCACGTGTACGT

Relative binding free energy, -0.04 kcal/mol:
CGTGCCACGTGGTTTG
GATTGCACGTGGCGTG
AGGAGCACGTGTGTCA
TTTAACACGTGTGATA

Relative binding free energy, 0.38 kcal/mol:
CTTATCACGTGAGTGA

Relative binding free energy, 0.25 kcal/mol:
ATGTTCACGTGTTTAA

Relative binding free energy, -0.03 kcal/mol:
GGGGGCACGTGTCAGG
TAGCACACGTGGTTGT
CGTTCCACGTGGGCGG
ATTTGCACGTGGTGGA
AGGCGCACGTGTCGGG

Relative binding free energy, 0.45 kcal/mol:
GAATTCACGTGTTGCT
GAAATCACGTGAGTTT

Relative binding free energy, 0.08 kcal/mol:
TAGGTCACGTGCAGGG
GATTGCACGTGGCATG
ATACTCACGTGGGTGT
GAGTGCACGTGTGAAT
CGGAACACGTGTGTTG

Relative binding free energy, 0.04 kcal/mol:
CGGGGCACGTGATGGC
TTTATCACGTGGCGTC
TTCGCCACGTGTGTGG
ATCGACACGTGGTAGG
TTAAACACGTGTATAT
CTTTACACGTGTGAGG

Relative binding free energy, -0.06 kcal/mol:
TAGGGCACGTGATGGG
GGTGGCACGTGTGGGA
ATTACCACGTGGTTTA
CATGACACGTGTTAGG
GGGTGCACGTGGTGCG
TTTGACACGTGTTACT

Relative binding free energy, 0.14 kcal/mol:
TGTGTCACGTGCGAAA
ATGTTCACGTGGCAGA
GATGTCACGTGCAAGG

Relative binding free energy, 0.3 kcal/mol:
CGTTTCACGTGAGCGG
GGGTTCACGTGTGGAG
TTAGTCACGTGAAAGC
GGGTTCACGTGGCAGT

Relative binding free energy, 0.44 kcal/mol:
TGTTTCACGTGAGGGG
TATTTCACGTGAATTA

Relative binding free energy, 0.06 kcal/mol:
TTATACACGTGAGTTA
TTTAACACGTGGATAG
ATAAGCACGTGTGGAA
AGTAACACGTGTTAAT
GTGGTCACGTGCGGCG
TGTTGCACGTGCCTAT
TCTGACACGTGTGGGT

Relative binding free energy, 0.31 kcal/mol:
AATAACACGTGAGTTT
AATTTCACGTGTGGAG

Relative binding free energy, 0.02 kcal/mol:
ATGTGCACGTGTATGT
TGGAACACGTGGGAGT
CGGCGCACGTGTGGCG
AGTTACACGTGGTCGT
ATTGTCACGTGGTATC

Relative binding free energy, -0.1 kcal/mol:
GCTGGCACGTGGTTAG
TGGCGCACGTGGCTTT
TGGCCCACGTGGTGAG

Relative binding free energy, -0.16 kcal/mol:
GTTAACACGTGGGATG
TGGAGCACGTGGGTGT
AGTGCCACGTGGTCGG
GCAGGCACGTGCAGGG
TCAGGCACGTGGTGGT

Relative binding free energy, -0.19 kcal/mol:
TCTGGCACGTGCGTGG
CGTGGCACGTGGAGTG
